Laboratory results: PubChem BioAssay (Tox21)
Where “and” joins values, the source holds several entries; their conditions need not be identical. Identical values can stand only once. Inconclusive means that the source gave no clear call. Such entries were picked first, then a sample of the others. For some assays here: A potency beside an inconclusive call is a rough fit, not a confirmed value. A structure can be active in one record and inactive in another. Calls of active or inactive are those of the source. Calls follow the shape of the dose curve; as a rule, active = well fitted curve in the direction sought with a large enough effect in the repeat runs; inconclusive = weak or mixed curves; inactive = no such curve, though single readings can be large; an effect the other way counts as inactive or inconclusive.

Assays:
[1] = Caspase-3/7 induction in CHO-K1 cells by small molecules, qHTS cell viability counter screen (AID 1346979); also: potency is read from the fitted curve at half-maximal effect; nearly all actives have a fitted effect of over 35% in size
Outline: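 To flag cytotoxic compounds, treated CHO-K1 wild-type cells were given CellTiter-Fluor at 16hr and read fluorescently after 1hr at 37C; the caspase-3/7 luminescence was measured in these same wells.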

[2] = Caspase-3/7 induction in HepG2 cells by small molecules, qHTS cell viability counter screen (AID 1346981); also: potency is read from the fitted curve at half-maximal effect; nearly all actives have a fitted effect of over 30% in size
Outline: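 The parent HepG2 line is plated at 2,000 cells per well and rested 5 hr before compound pinning from DMSO stocks. Following a 16-hr treatment at 37 C, a fluorogenic live-cell substrate (CellTiter-Fluor) reports viability after 1 hr.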

[3] = target: Cytochrome P450 2C19 (Homo sapiens) (UniProt P33261); test: Cytochrome P450 Family 2 Subfamily C Member 19 (CYP2C19) small molecule antagonists: luciferase reporter qHTS assay (AID 1671197); also: potency is read from the fitted curve at half-maximal effect; nearly all actives have a fitted effect of over 65% in size
Outline: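 CYP2C19 P450-Glo, 1536-well qHTS. Cpd + enzyme/proluciferin substrate 10 min RT; + NADPH regen, 37C 1 h; stop with luciferin detection reagent, 20 min RT, luminescence (RLU). Pos ctrl ketoconazole.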

[4] = target: Nuclear receptor subfamily 1 group I member 2 (Homo sapiens) (UniProt O75469); test: Human pregnane X receptor (PXR) small molecule agonists, qHTS assay (AID 1346982); also: % is scaled to controls: 0 for no effect and ±100 for the full control effect; nearly all actives have a fitted effect of over 35% in size
Outline: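 After plating in 5% charcoal-stripped FBS and a 5 hr rest, PXR-Luc HepG2 cells received compounds in DMSO. Following 24 hr at 37 C, ONE-Glo was added and light output read.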

[5] = target: Cytochrome P450 2D6 (Homo sapiens) (UniProt P10635); test: Cytochrome P450 Family 2 Subfamily D Member 6 (CYP2D6) small molecule antagonists: luciferase reporter qHTS assay (AID 1671196); also: nearly all actives have a fitted effect of over 50% in size; also: potency is read from the fitted curve at half-maximal effect
Outline: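 Quantitative HTS of Tox21 chemicals against CYP2D6 using a luminescent proluciferin substrate. After NADPH addition, 1 h room-temperature reaction; luminescence recorded 20 min post detection reagent.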

[6] = target: Nuclear receptor subfamily 1 group I member 2 (Rattus norvegicus) (UniProt Q9R1A7); test: Rat pregnane X receptor (rPXR) activation by small molecules, qHTS assay (AID 1346983); conditions: rPXR luciferase reporter cells, One-Glo luminescence, 24 h; max activation: stronger effect = higher value; also: % is scaled to controls: 0 for no effect and ±100 for the full control effect; nearly all actives have a fitted effect of over 20% in size
Outline: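 Cell-based rPXR luciferase reporter assay, 2,000 cells per well, rested 5hr at 37 C before compound addition in DMSO, then 24 hr at 37 C. One-Glo reagent was added and luminescence read after 30 min at room temperature.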

[7] = target: Nuclear receptor subfamily 1 group I member 2 (Homo sapiens) (UniProt O75469); test: Human pregnane X receptor (PXR) activation by small molecules, qHTS assay (AID 1346985); also: potency is read from the fitted curve at half-maximal effect; nearly all actives have a fitted effect of over 40% in size
Outline: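 DPX-2 cells (HepG2 co-transfected with a PXR response element and a CYP3A4-promoter luciferase construct) were seeded at 2,000 per well, rested 5 hr at 37C, then exposed to DMSO-dissolved compounds for 24 hr. Activation was read as luciferase luminescence.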
Tags tell the direction and shape of the fitted curve.

Chain of UniProt P33261 (P33261 whole entry, looked up): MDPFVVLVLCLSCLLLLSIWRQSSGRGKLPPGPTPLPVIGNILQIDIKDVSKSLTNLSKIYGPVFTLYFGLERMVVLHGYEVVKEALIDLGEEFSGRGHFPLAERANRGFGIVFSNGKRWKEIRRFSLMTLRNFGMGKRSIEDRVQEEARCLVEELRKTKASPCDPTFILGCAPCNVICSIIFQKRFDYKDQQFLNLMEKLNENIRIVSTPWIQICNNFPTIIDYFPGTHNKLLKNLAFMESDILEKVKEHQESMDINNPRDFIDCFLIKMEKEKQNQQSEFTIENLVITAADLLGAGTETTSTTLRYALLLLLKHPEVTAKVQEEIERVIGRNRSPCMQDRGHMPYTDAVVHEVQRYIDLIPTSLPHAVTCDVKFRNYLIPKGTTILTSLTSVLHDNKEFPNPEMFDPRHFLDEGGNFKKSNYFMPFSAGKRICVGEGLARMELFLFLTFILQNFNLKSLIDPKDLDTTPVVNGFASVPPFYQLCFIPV
Chain of UniProt P10635 (P10635 whole entry, looked up): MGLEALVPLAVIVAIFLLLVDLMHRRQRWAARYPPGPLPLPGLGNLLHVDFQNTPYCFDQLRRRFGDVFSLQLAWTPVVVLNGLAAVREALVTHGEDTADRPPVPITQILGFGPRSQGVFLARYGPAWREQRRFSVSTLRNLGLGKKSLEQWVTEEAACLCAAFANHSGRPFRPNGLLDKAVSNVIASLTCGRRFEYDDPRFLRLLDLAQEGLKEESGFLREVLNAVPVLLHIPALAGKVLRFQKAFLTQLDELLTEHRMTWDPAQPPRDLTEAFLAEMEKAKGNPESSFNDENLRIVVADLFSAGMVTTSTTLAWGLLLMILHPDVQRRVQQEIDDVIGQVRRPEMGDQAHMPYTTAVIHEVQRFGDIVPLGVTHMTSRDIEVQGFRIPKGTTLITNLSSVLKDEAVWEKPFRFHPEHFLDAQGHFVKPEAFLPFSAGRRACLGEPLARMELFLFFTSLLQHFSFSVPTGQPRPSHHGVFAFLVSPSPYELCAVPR
Chain of UniProt Q9R1A7 (Q9R1A7 whole entry, looked up): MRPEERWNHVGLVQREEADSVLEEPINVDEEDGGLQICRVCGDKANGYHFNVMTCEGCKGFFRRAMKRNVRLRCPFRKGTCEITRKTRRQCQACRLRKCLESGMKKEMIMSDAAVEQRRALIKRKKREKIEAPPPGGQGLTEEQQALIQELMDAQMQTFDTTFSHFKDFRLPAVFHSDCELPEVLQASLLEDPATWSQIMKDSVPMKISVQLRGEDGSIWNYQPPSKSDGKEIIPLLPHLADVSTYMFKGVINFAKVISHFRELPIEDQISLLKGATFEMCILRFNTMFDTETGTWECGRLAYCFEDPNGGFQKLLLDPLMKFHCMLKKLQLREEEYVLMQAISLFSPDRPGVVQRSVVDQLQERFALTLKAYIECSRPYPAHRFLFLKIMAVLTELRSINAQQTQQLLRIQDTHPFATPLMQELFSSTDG

O=C(Nc1ccc([N+](=O)[O-])cc1Cl)c1cc(Cl)ccc1O
Potency [1]: active: 2.17 µM and active: 2.59 µM
Potency [2]: inconclusive: 1.37 µM [cytotoxic, full curve] and inconclusive: 1.64 µM [cytotoxic, full curve]
Potency [3]: inconclusive: 89.4 µM [inhibitor, single point]

O=C(O[C@@H]1Cc2c(O)cc(O)cc2O[C@@H]1c1cc(O)c(O)c(O)c1)c1cc(O)c(O)c(O)c1
Potency [1]: active: 30.7 µM and active: 52.5 µM
Potency [4]: inactive
Potency [5]: inconclusive: 71.2 µM [inhibitor, partial curve] and inconclusive: 38.5 µM [inhibitor]

CCCCC(CC)COC(=O)CC(C(=O)OCC(CC)CCCC)S(=O)(=O)O (centres undefined)
Potency [1]: inconclusive: 68.6 µM [cytotoxic, single point]
Potency [5]: inactive and active: 17.8 µM
Potency [3]: inconclusive: 86 µM [inhibitor, single point] and inconclusive: 89.4 µM [inhibitor, single point]

CCC(C)(C)c1ccc(CC(C)CN2C[C@@H](C)O[C@@H](C)C2)cc1 (some centres undefined)
Potency [1]: inconclusive: 33.5 µM [cytotoxic, single point]
max activation [6]: inactive: -0.729%
Potency [7]: inconclusive: 11.2 µM [activator, partial curve, poor fit]

O=C(CCCCCCCCc1cccnc1)N1CCC(C=C(c2ccccc2)c2ccccc2)CC1
Potency [1]: inconclusive: 27.3 µM [cytotoxic, single point]
Potency [3]: inconclusive: 11.2 µM [inhibitor]
